Measured values as given in ChEMBL document CHEMBL4888484, “Replenishing the malaria drug discovery pipeline: Screening and hit evaluation of the MMV Hit Generation Library 1 (HGL1) against asexual blood stage Plasmodium falciparum ,using a nano luciferase reporter read-out” (2022).
Among all 150,000 compounds or so, about 540 (0.36%) showed an effect of 50% or more. This is one part of the list.

System: Plasmodium falciparum
Assay: Primary screen in NF54 nanoGlo assay, in single point, at 2uM, 72h; a lower Z score goes with more inhibition
Format: functional, Erythrocyte
Details: timepoint 72 hour

SMILES | % Inhibition | Z score
CCONC(=O)C1CC(=O)N(C(C)C)C1c1ccc(Cl)c(F)c1 (stereo unspecified) | 1% | -0.11
Cc1ccccc1N1CCN([C@H]2CCC(=O)N(Cc3ccc(F)cc3F)CC2)CC1 | -13% | 2.31
O=C(Cn1ncc(=O)c2ccccc21)N1CC(S(=O)(=O)N2CCOCC2)C1 | -4% | 0.39
O=C(CCc1ncc(-c2ccc(Cl)cc2Cl)o1)N1CCCC1 | -20% | 3.57
C=CCNc1cc(C)c(F)cc1C(N)=O | -10% | 1.14
CN(c1ncc(C(=O)NCc2ccccc2F)c(N)n1)C1CCCCC1 | -1% | 0.1
C[C@@H](CNC(=O)c1nnn2c1c(=O)[nH]c1ccccc12)c1ccccc1 | -3% | 0.54
O=C1C[C@H]2CC[C@@H](CN1)N2S(=O)(=O)N1CCCCCC1 | -18% | 1.97
Cc1csc(CN(C)C(=O)N[C@@H](C)COc2ccccc2F)n1 | 5% | -0.93
COCCN(CC(=O)N(Cc1ccc(F)cc1)Cc1cccs1)C(=O)c1ccc(Cl)cc1Cl | 3% | -0.37
Cc1nn(C)cc1S(=O)(=O)N1CCOc2c(F)ccc(F)c21 | -7% | 0.98
Cc1ccc(C2=C[C@@H](c3ccc(C)cc3)n3nnnc3N2CC(=O)NC2CCCCC2)cc1 | -9% | 0.87
CCOCC(=O)NCCn1nc(-c2ccccn2)cc1C1CC1 | -14% | 1.83
O=C(CCC1CCCC1)NC1CCN(c2cn[nH]c(=O)c2)CC1 | -6% | 0.66
C[C@]1(c2noc(C3CCOCC3)n2)CCCN(C(=O)CCn2ccnc2)C1 | -2% | 0.36
CCC=C(C)C(=O)NCc1nncn1CC | -3% | 0.37
Cc1cc(=O)[nH]c(C(C)(C)NC(=O)[C@H](C)c2ccccc2C)n1 | -15% | 2.42
CCOC(=O)c1cccc(NC(=O)c2ccc(Oc3nccnc3N3CCOCC3)cc2)c1 | 7% | -1.08
CCN(C(=O)c1c(C)ccn1C)C1CN(C(=O)c2c(C)ccn2C)C1 | -12% | 1.39
CCn1nc(C(=O)N2CCOC[C@@H]2CC2CC2)c(=O)c2ccccc21 | -12% | 2.16
Cc1sc(-c2ccno2)cc1S(=O)(=O)N1CCc2ccccc2C1 | 3% | -0.45

SMILES | % Inhibition | Z score
O=C(CCCN1C(=O)c2ccc(Br)cc2C1=O)Nc1scnc1-c1ccccc1 | 3% | -0.37
Fc1cc(F)cc(-c2noc3ncnc(NCCCN4CCOCC4)c23)c1 | -9% | 1.28
CCC(CC)c1nnc(NC(=O)N(CC)C[C@H]2CCOC2)s1 | -13% | 1.28
CC(C)Cc1nc(C(=O)NS(=O)(=O)c2cnn(C)c2)cs1 | -3% | 0.42
CCN1CCN(Cc2ccc(NC(=O)c3cn(-c4cccc(OC)c4)c(=O)c4ccccc34)cc2)CC1 | 0% | -0.05
CC(C)(CNC(=O)N1CCC[C@H](c2cn[nH]c2)C1)CC1CCOCC1 | -5% | 0.67
COc1ccccc1-c1nc2n(n1)[C@]1(Nc3ccccc3-2)C(=O)Nc2ccc(Br)cc21 | -10% | 0.98
Cn1cccc(NC(=O)NCC2CC23CCCc2ccccc23)c1=O (stereo unspecified) | -6% | 0.53
O=C(NS(=O)(=O)c1ccc2[nH]nnc2c1)C1CC2(CCC2)C1 | -7% | 0.68
CN(Cc1cnccn1)Cc1ccccc1-c1ccco1 | 4% | -0.71
Cc1ccc(Oc2ccc(C(=O)N3CCCC[C@@H]3C)cc2)nn1 | 3% | -0.5
c1cncc(-c2ncc(CN3CCC(C4CCOCC4)CC3)s2)c1 | 1% | -0.11
COc1cccc(CNS(=O)(=O)c2cc(-c3c(C)nn4c3NC(=O)CCC4=O)ccc2OC)c1 | 2% | -0.21
COCCOc1cc(=O)n2c(c1C(=O)NC1CCCCC1)CCOCC2 | -10% | 1.19
Cc1cc(NCCc2nnc(C)s2)n2nccc2n1 | -18% | 3.41
CCC(=O)N1CCc2[nH]cnc2C12CCN(C(=O)c1cc(C)ccc1O)CC2 | 2% | -0.41
CC(C)CS(=O)(=O)N1CCC(NC[C@H](C)c2ccccc2)CC1 | 13% | -1.29
NC(=O)[C@@H]1CN(S(=O)(=O)c2cccc(C(=O)NC3CCC3)c2)CCO1 | -7% | 0.83
Cc1ccccc1CC(=O)N1CCN[C@H](C)C1 | 4% | -0.72
c1ccc(Cc2noc(C3CN(Cc4cccnc4)C3)n2)cc1 | -15% | 2.83
O=C(CN1CCCC1)N[C@@H](c1ccccc1)c1ccc2[nH]c(C(F)(F)F)nc2c1 | -17% | 1.74

SMILES | % Inhibition | Z score
CC(C)c1nc(Cn2cnnn2)n(-c2ccc(Cl)cc2)n1 | 11% | -1.59
CC1CCCC(C(=O)N2CCC(c3ncc(C(=O)O)s3)CC2)C1 (stereo unspecified) | 1% | -0.11
CC[C@H]1CCCCN1c1oc(-c2ccc(OCc3ccccc3Cl)cc2)nc1C#N | 0% | 0.06
O=C(Cc1ccsc1)N1CCC[C@H](Oc2cccnn2)C1 | 0% | 0.03
O=C(NCCCc1ccccc1)c1ccc(CN2C(=O)CCn3nccc32)cc1 | 58% | -2.28
O[C@H]1CCN(Cc2ccc(OC(F)F)c(Cl)c2)C1 | -13% | 1.47
CCn1c(=O)c(-c2noc(C(=O)NC3CCCCC3)n2)nn(-c2ccc(F)cc2)c1=O | 1% | -0.21
CC1OCCC1(C)NC(=O)CCc1c[nH]c2ccccc12 (stereo unspecified) | -5% | 0.82
Cc1noc(C)c1NC(=O)CCc1ccccc1Cl | -4% | 0.56
CC(C)(CN1C(=O)NC2(CCCC2)C1=O)C(F)(F)F | -7% | 0.92
Cc1ccc(CN2CCNC(=O)[C@@H]2CC(=O)NCc2cnc3c(c2)CCC3)o1 | -5% | 0.97
Cc1ccc(CN(C)[C@@H](C)C(=O)NC(C)(C)C)c(C)c1 | -20% | 3.18
Cc1ccnc(NC(=O)[C@@H](NC(=O)CC(C)C)C(C)C)c1 | -7% | 0.86
CCN(Cc1c(C)nn(CC)c1C)C(=O)[C@@H]1CC(F)(F)CN1C1CN(S(C)(=O)=O)C1 | -7% | 0.83
CC(C)N1C[C@H](O)C[C@H]1c1nc(-c2cccnc2)no1 | 7% | -0.87
COc1cccc(CC(=O)N2CCc3nc(N4CCC(C)CC4)nc(Oc4ccc(F)cc4F)c3C2)c1 | -8% | 1.48
Cc1csc(C(=O)N2CCCN(S(=O)(=O)c3c(C)n[nH]c3C)CC2)c1 | -11% | 1.72
CC(C)(C)c1nc2ccccn2c1-c1ccc(C(=O)N2CCCNCC2)cc1 | 10% | -1.91
CN(Cc1ccc2ccccc2n1)C(=O)CN1C(=O)CNC1=O | -5% | 1.03
CCOC(=O)c1cc(C2CC2)nc2c1c(=O)n(Cc1nc(-c3cccc(Cl)c3)oc1C)c(=O)n2C | 4% | -0.59
CC(O)C(C)S(=O)(=O)Cc1ccc(C(F)(F)F)cn1 (stereo unspecified) | 3% | -0.47

SMILES | % Inhibition | Z score
O=C(NCc1ccc(Cl)cc1)N1CC(n2nccn2)C1 | -21% | 2.45
CC(C(=O)O)N1CCCC(CN2CCCCCC2)C1 (stereo unspecified) | -2% | 0.23
Cc1c(C(=O)N2CCCCC3CCCCC32)cnn1CC(C)C (stereo unspecified) | -10% | 1.45
O=C(NCCc1c[nH]c2ccccc12)c1ccc2c3c(cccc13)CC2 | 0% | 0.04
O=S1(=O)CCC[C@@H]1CNCc1csc(-c2ccccn2)n1 | -13% | 1.51
CC(C)CC(=O)NC(=O)NC1CCCCC1 | 1% | -0.1
Cc1nn(CC(=O)NC[C@H](C)n2ccnc2)c(=O)n1Cc1ccccc1 | -5% | 0.49
CO[C@H]1CCCN(S(=O)(=O)c2cc(-c3cc(C(F)(F)F)on3)oc2C)C1 | 6% | -1.17
C=C(C)CNC(=O)c1c(F)ccc(S(=O)(=O)CC2CC2)c1F | 6% | -0.93
COc1ccc(/C=C/CN2CCC3(CCC(=O)N([C@H]4CCN(C)C4)C3)CC2)cc1 | -5% | 1.07
Cc1cc(C(=O)N[C@@H](CO)c2csc(C(C)C)n2)ns1 | 5% | -0.92
O=C(NC1CCC(n2cccn2)CC1)c1ccc(Cl)s1 (stereo unspecified) | 1% | -0.2
COCCNC(=O)C1CC2CCCCC2N1S(=O)(=O)c1ccc2c(c1)OCCO2 (stereo unspecified) | 4% | -0.52
Cc1nn(C)cc1S(=O)(=O)N1CCN(C(=O)[C@@H]2CCCO2)CC1 | -36% | 4.25
COc1ccc(N2C(=O)[C@@H]3[C@H](CCC(N)=O)N[C@]4(C(=O)Nc5ccccc54)[C@@H]3C2=O)cc1 | -4% | 0.32
O=C(c1ccno1)N1CCC(c2nc3ccccc3o2)CC1 | -15% | 2.23
CCCc1nc(CN(CC)C(=O)[C@@H](c2ccc(F)cc2)N(C)C)no1 | -12% | 2.27
CC(NC(=O)C1CCCOC1)(C(N)=O)c1cccc(Cl)c1 (stereo unspecified) | -3% | 0.64
Cc1nc(NCc2ccccc2)sc1-c1ccn(Cc2ccncc2)n1 | -9% | 1.15
CCCCN1CCN(C(=O)c2cnc(N)s2)CC1=O | -1% | 0.24
